For 34 variants, self-cleavage results are on record in the RNAGym collection of RNA variant scans (doi:10.1093/nar/gkz1192).

The labels stand for the following.
B1: CPEB3 Ribozyme (parent)
chain: UAACAGGGGGCCACAGCAGAAGCGUUCACGUCGCAGCCCCUGUCAGAUUCUGGUGAAUCUGCGAAUUCUGCUGUAUAUCUC

The source gives no read counts; variants with many changes may rest on few reads.

The variants in the series derive from B1. Nature of the series: self-cleavage, relative activity (ratio to wild type); higher = more cleavage; in vitro, sequencing. In a few lines: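 Barcoded CPEB3 ribozyme mutants, produced by rounds of error-prone PCR, self-cleaved while being transcribed with T7 RNA polymerase for 5 hours at 37°C and during a subsequent 15 min DNase I step before EDTA was added. Sequencing of template-switched cDNA on Illumina gave cleaved and total reads, and DNA sequencing assigned barcodes to variants. Each variant's relative activity is its cleaved/total read fraction divided by the unmutated ribozyme's fraction, averaged across three batches. A variant needed a minimum of 5 reads.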
Regarding UAACAGGGGGCCACGGCAGAAGCGUUCACGCCGCAGCCCCUGUCAGAUUCUGGUGAAUCUGCGAAUACUGCUGUAUAUCUC [A15G U31C U67A], the self-cleavage was 0.21.

In the case of UAACAGGGGGCCACGGCAGAAGCGUUCACGCCGCAGCCCCUGUCAGAUUCUGGUGAAUCUGCGAAUCCUGCUGUAUAUCUC [A15G U31C U67C], the self-cleavage was found to be 0.14.

With UAACAGGGGGCCACGGCAGAAGCGUUCACGCCGCAGCCCCCGUCAGAUUCUGGUGACUCCGCGAAUUUUGCUGUAUAUAUC [A15G U31C U41C A57C U60C C68U C79A], the self-cleavage turned out to be 0.08.

Turning to UAACAGGGGGCCACGGCAGAAGCGUUCACGCCGCAGCCCCCGUCAGAUUCUGGUGAAUCUGCGAAUUCUGCCGUAUAUCUC [A15G U31C U41C U72C], the self-cleavage stood at 0.7.

Regarding UAACAGGGGGCCACGGCAGAAGCGUUCACGCCGCAGCCCCUGACAGAAUAUGGUGAAUCUGCGAAUUCUGCUGUAUAUCUC [A15G U31C U43A U48A C50A], the self-cleavage is 0.06.

For the variant UAACAGGGGGCCACGGCAGAAGCGUUCACGUCGCAGCCCCUGCCAGACUCUGGUGAAUCUGCGAAUUCUGCUGUAUAUCUC [A15G U43C U48C], the self-cleavage was found to be 0.33.

On to UAACAGGGGGCCACGGCAGAAGCGUUCACGCCGCAGCCCCUGUCAGAUUCUGGUGAAUCUGCGAAUUCUGCUGUAUAUAUC [A15G U31C C79A], for which the self-cleavage amounted to 0.53.

For UAACAGGGGGCCACGGCAGAAGCGUUCACGUCGCAGCCCCAGUCAGAUUCUGGUGAGUCUGCGAAUUCUGCUGUAUAUCUC [A15G U41A A57G], the self-cleavage stood at 0.17.

Consider UAACAGGGGGCCACGGCAGAAGCGUUCACGGCGCAGCCCCUGUCAGAUCCUGGUGAAUCUGCGAAUUCUGCUGUAUAUCUC [A15G U31G U49C], for which the self-cleavage worked out at 0.17.

For UAACAGGGGGCCACGGCAGAAGCGUUCACGUCGCAGCCCCCGUCAGAUUCUGGUGAAUCUGCGAAUUCUGCUGUAUAUCGC [A15G U41C U80G], the self-cleavage came out at 1.03.

Consider UAACAGGGGGCCACGGCAGAAGCGUUCACGUCGCAGCCCCAGUCAGAUCCUGGUGUAUCUGCGAAUUCUGCCGUAUAUCUC [A15G U41A U49C A56U U72C], for which the self-cleavage worked out at 0.21.

In the case of UAACAGGGGGCCACGGCAGAAGCGUUCACGUCGCAGCCCCUGACAGAUUCUGGCGAAUCUGCGAAUUCUGCUGUAUAUCUC [A15G U43A U54C], the self-cleavage is 0.38.

On to UAACAGGGGGCCACGGCAGAAGCGUUCACGUCGCAGCCCCGGUCAGAUUCUGGCGAGUCUGCGAAUUCUGCUGUAUAUCUC [A15G U41G U54C A57G], for which the self-cleavage amounted to 0.28.

For UAACAGGGGGCCACGGCAGAAGCGUUCACGCCGCAGCCCCUGUCAGAUUCUGGUGGAUCUGCGAAUUCUGCUGUAUAUCUC [A15G U31C A56G], the self-cleavage amounted to 0.17.

As for UAACAGGGGGCCACGGCAGAAGCGUUCACGUCGCAGCCCCUGCCAGAAUCUGGUGAAUCAGCGAAUCCUGCUGUAUAUCUC [A15G U43C U48A U60A U67C], the self-cleavage came out at 0.1.

As to UAACAGGGGGCCACGGCAGAAGCGUUCACGUCGCAGCCCCCGCCAGAUUCUGGUGAAUCUGCGAAUUCUGCUAUAUAUCUC [A15G U41C U43C G73A], the self-cleavage amounted to 0.51.

Take UAACAGGGGGCCACGGCAGAAGCGUUCACGCGGCAGCCCCUGUCAGAUUCUGGUGAAUCUGCGAAUUCUGCUGUAUAUCUC [A15G U31C C32G]: the self-cleavage came out at 0.26.

As for UAACAGGGGGCCACGGCAGAAGCGUUCACGUCGCAGCCCCCGUCAGAUUCUGGUGAAUCUGCGAACUCUGCUGUAUAUCUC [A15G U41C U66C], the self-cleavage was determined as 0.31.

In the case of UAACAGGGGGCCACGGCAGAAGCGUUCACGUCGCAGCCCCUGCCUGAUACUGGUGAAUCUGCGAAUUCUGCUGUAUAUCUC [A15G U43C A45U U49A], the self-cleavage was found to be 0.16.

Turning to UAACAGGGGGCCACGGCAGAAGCGUUCACGCCGCAGCCCCUGUCAGAUUCUGGUGAAUCUGCGGAUUCUGCUGUAUAUCUC [A15G U31C A64G], the self-cleavage was determined as 0.14.

Regarding UAACAGGGGGCCACGGCAGAAGCGUUCACGUCGCAGCCCCUGACAGAUUCUGGUGAAUCUGGGAAUUCUGCUGUAUAUCUC [A15G U43A C62G], the self-cleavage is 0.23.

With UAACAGGGGGCCACGGCAGAAGCGUUCACGUCGCAGCCCCUGACAGAUUCUGGUGAAUCUGCGAAUUCUGCUUUAUAUCUC [A15G U43A G73U], the self-cleavage came out at 1.23.

For UAACAGGGGGCCACGGCAGAAGCGUUCACGUCGCAGCCCCUGACAGAUUCUGGUGAAUCUGCGAAUUCUGCUGCAUAUCUC [A15G U43A U74C], the self-cleavage came out at 1.09.

Take UAACAGGGGGCCACGGCAGAAGCGUUCACGUCGCAGCCCCGGUCAGAUUCUGGUGAAUCAGCGAAUUCUGCUGUAUAUCUC [A15G U41G U60A]: the self-cleavage came to 0.04.

For the variant UAACAGGGGGCCACGGCAGAAGCGUUCACGCCGCAGCCCCCGUCAGAUUCUGGUGAAUCUGCGAACUCUGCUGUAUAUCUC [A15G U31C U41C U66C], the self-cleavage stood at 0.35.

For UAACAGGGGGCCACGGCAGAAGCGUUCACGUCGCAGCCCCCGUCAGAUUCUGGUGAAUCUGCGAAUUCUGCUGUAUACCUC [A15G U41C U78C], the self-cleavage is 1.08.

As to UAACAGGGGGCCACGGCAGAAGCGUUCACGGCGCAGCCCCUGUCAGAUUCUGGUGAAUCAGCGAAUUCUGCUGUAUAUCUC [A15G U31G U60A], the self-cleavage is 0.28.

On to UAACAGGGGGCCACGGCAGAAGCGUUCACGCCACAGCCCCUGUCAGAUUCUGGUGUAUCUGCGAACUCUGCUGUAUAUCUC [A15G U31C G33A A56U U66C], for which the self-cleavage was determined as 0.09.

As to UAACAGGGGGCCACGGCAGAAGCGUUCACGUCGCAGCCCCCGUCAGAUUCCGGUGUAUCUACGAGUUCUGCUGUAUAUCUC [A15G U41C U51C A56U G61A A65G], the self-cleavage is 0.29.

Take UAACAGGGGGCCACGGCAGAAGCGUUCACGUCGCAGCCCCCGUCAGAUUCUGGUGAAUCUGCGUAUUCUGCGGUAUAACUC [A15G U41C A64U U72G U78A]: the self-cleavage was determined as 0.21.

Regarding UAACAGGGGGCCACGGCAGAAGCGUUCACGUCGCAGCCCCCGUCAGAUUCUGGAGAAUCUGCGAAUUCUUCAGUAUAUCUC [A15G U41C U54A G70U U72A], the self-cleavage came to 0.17.

Regarding UAACAGGGGGCCACGGCAGAAGCGUUCACGUCGCAGCCCCAGUCAGAUUCUUGUGAAUCUGCGGGCUCUGCUGUAUAUCUC [A15G U41A G52U A64G A65G U66C], the self-cleavage stood at 0.05.

For the variant UAACAGGGGGCCACGGCAGAAGCGUUCACGUCGCAGCCCCUGACAGACUCUGGUGAAUUUGCGGAUUCUGCAGUAUAUCUC [A15G U43A U48C C59U A64G U72A], the self-cleavage came to 0.13.

As for UAACAGGGGGCCACGGCAGAAGCGUUCACGUCGCAGCCCCAGUCAGAUCCUGGUGAAUCUGCGUAUUCUGCUGUAUAUCGC [A15G U41A U49C A64U U80G], the self-cleavage amounted to 0.37.
